“And” between values parts separate entries of the source, which are not always exact repeats. Equal values may be shown once. The campaign covered roughly 48,000 compounds. About 1,200 (2.5%) were called active. About 2% were inconclusive and are not listed.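 How the source made its calls: active means activation of at least 60% and not above a set upper limit (about 1 call in 100 departs from these limits); inconclusive means activation of 40% to 60%, or above that upper limit; inactive means activation under 40%.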 This is one part of the list.

Sequence of UniProt O75388 (O75388 whole entry, looked up): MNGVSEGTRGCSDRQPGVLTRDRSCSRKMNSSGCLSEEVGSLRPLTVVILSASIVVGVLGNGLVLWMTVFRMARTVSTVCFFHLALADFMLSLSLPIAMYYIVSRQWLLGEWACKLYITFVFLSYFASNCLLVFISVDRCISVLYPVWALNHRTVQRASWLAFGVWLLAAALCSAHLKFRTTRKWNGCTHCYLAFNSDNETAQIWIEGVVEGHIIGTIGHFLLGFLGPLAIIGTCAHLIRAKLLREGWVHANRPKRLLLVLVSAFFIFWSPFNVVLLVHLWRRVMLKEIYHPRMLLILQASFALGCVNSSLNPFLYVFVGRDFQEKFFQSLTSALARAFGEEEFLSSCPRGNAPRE

The experiment addresses Probable G-protein coupled receptor 32 (Homo sapiens) (UniProt O75388). The experiment is described as follows: qHTS for Agonists of Human Resolvin D1 Receptor DRV1. Further: 0% is about no effect. The settings on record: CHO-K1 GPR32 beta-arrestin PathHunter luminescence, 90 min; at 76.9 µM; hits give high values; zero percent set by DMSO-only wells. The essentials:
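Cells are plated overnight, treated with compounds in DMSO for 90 minutes at 37 °C, and developed with PathHunter detection reagent for 1 hour before luminescence is read; signal reflects beta-arrestin binding to GPR32 in engineered CHO-K1 cells.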
On the technique in general: qHTS replaces the single test concentration by a dilution series.
For `CCC(=O)Nc1sc2c(c1C(=O)Nc1ccccc1C)CCC(C)C2` (configuration not stated), the activation is inactive: -3.6%.
Regarding `Cn1c(=O)c2sccc2n2c(CCC(=O)N3CCN(c4ccccc4)CC3)nnc12`, the activation is inactive: -12.4%.
With `O=C(O)c1cc(=O)[nH]c(=O)[nH]1`, the activation was inactive: -29.6%.
The result for `Cc1nc(N)nc(N)c1-c1ccc(Cl)c(Cl)c1` reads inactive: -1.65%; that for `CCC(Cc1ccccc1)NC(=O)c1oc(=O)c2ccccc2c1-c1ccccc1` (configuration not stated), inactive: -12.2%; that for `CCOC(=O)c1cccc(NC(=O)NCCc2c(C)nn(C)c2C)c1`, inactive: 7.01%.
As for `Cc1cccc(C)c1OCCCCn1c(C2CC(=O)N(c3ccc(F)cc3)C2)nc2ccccc21` (configuration not stated), the figure is inactive: -30.8%.
The result for `CCc1ccc(NC(=O)N2CCN(Cc3cc(=O)n4nc(-c5ccccc5OC)sc4n3)CC2)cc1` reads inactive: -9.19%.
As for `COC(=O)c1ccccc1NC(=O)c1noc2c1CSc1ccccc1-2`, the activation is inactive: -2.94%.
As for `COc1ccc2nc(NC(=O)c3ccc(S(=O)(=O)N4CCC(C)CC4)cc3)sc2c1`, the figure is inactive: 24%; as for `CC(=O)NCCCCCC(=O)O`, inactive: 5.21%.
With `CCn1c(=N)c(C(=O)NCc2cccnc2)cc2c(=O)n3cc(C)ccc3nc21`, the activation is inactive: 21.2%.
As for `O=S(=O)(NCC(c1ccco1)N1CCN(c2ccc(F)cc2)CC1)c1ccccc1` (configuration not stated), the figure is inactive: -24.3%; as for `COC(=O)c1cc2occc2n1CC(=O)Nc1cccc(SC)c1`, inactive: 18.7%.
As for `COc1ccc(-c2cc(C(=O)Nc3cc(C)ccc3O)no2)cc1OC`, the activation is inactive: -7.43%.
The result for `COc1ccc(-c2nc(CSCC(=O)NCCc3ccc(C)cc3)c(C)o2)cc1OC` reads inactive: -22.4%; that for `CCN(CC)CCCNC(=O)c1c(C)oc2ncnc(N3CCOCC3)c12`, inactive: -13%; that for `CCCCN(Cc1ccccc1)S(=O)(=O)c1ccc2c(c1)CC(C)N2C(=O)CC` (configuration not stated), inactive: -2.07%.
For the compound `COc1ccccc1Cc1nc2ccccc2nc1SCC(=O)NCCc1ccccc1`, the activation is inactive: -19.4%.
Regarding `CCOc1ccc(CNC(=O)c2ccc(NC(=O)c3nsc4ccccc34)cc2)cc1`, the activation is inactive: -9%.
Consider `Cc1c(C(=O)NCc2ccc(Cl)cc2)sc2nc3n(c(=O)c12)CCCC3`, for which the activation was inactive: -21.9%.
As to `O=c1n(CCCN2CCN(c3cccc(Cl)c3)CC2)nc2ccccn12`, the activation was inactive: 0.134% and inactive: -8.88%.
The result for `CCc1noc2nc(C)n(CC(=O)O)c(=O)c12` reads inactive: -1.34%; that for `CCOC(=O)Cn1cc2c(c1-c1ccc(Cl)cc1)c(=O)n(C)c(=O)n2C`, inactive: -5.56%.
On to `CN(C(=O)CSc1nc2ccccc2n1CC(=O)NCc1ccc(F)cc1)c1ccc(F)cc1`, for which the activation is inactive: -1.17%.
As for `CCS(=O)(=O)c1ccccc1C(=O)N(Cc1cccnc1)c1nc2cc(C)c(C)cc2s1`, the activation was inactive: -36.1%.
Take `COc1ccc(OC)c(-c2cc(C(=O)Nc3ccc(C)c(C)c3)no2)c1`: the activation is inactive: -14%.
The result for `O=C(CSc1nc2ccsc2c(=O)n1Cc1ccc(F)cc1)NCc1ccc(Cl)cc1` reads inactive: 13.1%; that for `Cc1cc(Nc2ccc(Br)cc2)n2nc(-c3ccccc3C)nc2n1`, inactive: -38.1%; that for `CC1=C(C(=O)Nc2ccc(C)cc2C)C(c2ccccc2)n2nc(SCC(=O)c3ccc(C)cc3)nc2N1` (configuration not stated), inactive: -3.43%.
The result for `CN1c2ccc(Cl)cc2-c2nc(SCC(=O)NCc3ccc(F)cc3)ncc2S1(=O)=O` reads inactive: 8.74%; that for `CCCCCCOc1ccc(/C=C/C(=O)Nc2sc3c(c2C(=O)OC)CCC3)cc1OC`, inactive: 32.5%; that for `CCc1ccccc1NC(=O)CCNS(=O)(=O)c1ccc2c(c1)CCCC(=O)N2`, inactive: 30%.
The result for `COc1ccc(NC(=O)Cn2c(=O)oc3ccccc32)cc1` reads inactive: -9.6%; that for `Oc1ccc(-c2nc(-c3ccc(F)cc3)c(-c3ccncc3)[nH]2)cc1`, inactive: -9.57%.
Turning to `CCC(C)c1ccc(OCC(=O)Nc2cccc3ccc(C)nc23)cc1` (configuration not stated), the activation was inactive: -26.1%.
As to `Cc1nn(C)c2c1c(C(F)(F)F)cc(=O)n2CC(=O)NCc1ccc(OC(C)C)cc1`, the activation was inactive: 39.1%.
Regarding `O=C(NCC(c1ccc2c(c1)OCO2)N1CCOCC1)c1ccccc1` (configuration not stated), the activation is inactive: -15.4%.
As for `Cc1c(O)nc(SCC(=O)Nc2ccc(Cl)cc2Cl)n(-c2ccc(F)cc2)c1=O`, the activation is inactive: -9.86%.
The result for `CCC(C)NC(=O)c1cc2cc(S(=O)(=O)N3CCCCC3)ccc2n1C` (configuration not stated) reads inactive: -20.4%; that for `CCN1CCN(c2ncc3c(n2)CCN(Cc2cc(Br)cs2)C3)CC1`, inactive: -34.1%.
The result for `CC(C)(C)c1ccc(CSC2=Nc3ccccc3C3=NC(CC(=O)NCc4cccs4)C(=O)N23)cc1` (configuration not stated) reads inactive: -32.7%.
As for `C/C(=N/NC(=O)c1ccncc1)C(=O)O`, the figure is inactive: -36.6%; as for `COc1cc(Cn2c(=O)oc3ccc(C)cc32)ccc1OCCC(C)C`, inactive: -19.6%; as for `CC(C)(C)c1ccc(S(=O)(=O)N2CCC(Oc3ccc(-n4cnnn4)cc3)CC2)cc1`, inactive: -5.64%.
For `Cc1cn(C)c(CC(=O)NCc2cccc(Cl)c2)c1C(=O)O`, the activation was inactive: -1.32%.
As for `O=C(CNC(=O)c1ccc(Cl)cc1)OCc1cc(=O)n2nc(C3CC3)sc2n1`, the figure is inactive: -6.72%; as for `Cc1ccc(CNS(=O)(=O)c2ccc(N3CCCCS3(=O)=O)cc2)cc1`, inactive: 25.1%; as for `Cc1ccc(Cl)cc1NC(=O)Cn1c(=O)cc(C)c2c(C)nn(C)c21`, inactive: -5.34%.
As for `Cc1cc(C)c(S(=O)(=O)Nc2ccc3oc(C)c(C(=O)OC(C)C)c3c2)cc1C`, the figure is inactive: 26.9%; as for `Cc1oc(-c2cccc(Cl)c2)nc1CN1CCC(C(=O)NC(C)C)CC1`, inactive: -7.59%.
As for `O=C(COc1ccc(Br)cc1Br)Nc1ccc(S(=O)(=O)Nc2ncccn2)cc1`, the figure is inactive: 35.9%; as for `Cc1ccc(CNC(=O)CCNS(=O)(=O)c2ccc3c(c2)oc(=O)n3C)cc1`, inactive: -3.54%; as for `Cc1ccc(-n2nc3cc(C)c(NC(=O)c4ccc(-c5ccccc5)o4)cc3n2)cc1`, inactive: -13.5%.
Regarding `COc1cccc(C2CC(=O)Nc3c2c(=O)n(C)c2nc4ccccc4n32)c1OC` (configuration not stated), the activation is inactive: 3.69%.
As for `O=C(CCn1c(=O)c2sccc2n(Cc2ccc(F)cc2)c1=O)NCc1ccc2c(c1)OCO2`, the figure is inactive: -4.7%; as for `COc1cccc(Nc2nnc(-c3cc4ccc(O)cc4oc3=O)s2)c1`, inactive: -7.07%; as for `CCOc1ccc(NC(=O)Cn2c(=O)n(CCc3ccccc3)c(=O)c3c4c(sc32)CCCC4)cc1`, inactive: -4.69%.
Turning to `Cc1ccc(NC(=O)CC2Oc3ccc(C)cc3NC2=O)c(C)c1` (configuration not stated), the activation is inactive: 0.244%.
As for `Cc1ccc(CSc2c(C)cnc3c2c(=O)n(C)c(=O)n3C)cc1`, the figure is inactive: -2.57%; as for `CC(=O)c1ccc(NC(=O)Cn2nc(C(F)(F)F)c3c2CCC3)cc1`, inactive: -8.48%.
As for `Cc1ccc(Cl)cc1N1CCN(C(=O)Cn2cnc3onc(-c4ccc(F)cc4)c3c2=O)CC1`, the activation is inactive: 3.53%.
As to `CCc1nc2ccc(C(=O)N3CCN(c4ccccc4F)CC3)cc2nc1CC`, the activation is inactive: -34%.
The result for `COc1cccc2sc(NC(=O)c3ccc4c(c3)OCCO4)nc12` reads inactive: 44.8%.
The result for `CCOC(=O)C1=C(CN2CCN(c3ccc(Cl)cc3)CC2)NC(=O)NC1c1ccc(OC)cc1` (configuration not stated) reads inactive: -26%.
As for `O=C(Cn1ncc2c3ccccc3n(Cc3ccccc3)c2c1=O)NCc1cccs1`, the figure is inactive: -18.1%; as for `CCN(CC)CCNC(=O)CCn1c(=O)c2cccn2c2cccnc21`, inactive: -10.6%.
Turning to `Cc1ccc2nc(-c3ccc(NC(=O)Cc4ccccc4)cc3)sc2c1`, the activation is inactive: 16.1%.
Consider `CCCCNC(=O)CCC1N=C2c3ccccc3N=C(SCC(=O)NCCc3ccc(OC)c(OC)c3)N2C1=O` (configuration not stated), for which the activation was inactive: -17.2%.
Regarding `CCc1ccc(NC(=O)CCn2c(-c3ccc(OC)cc3)cc(C(C)=O)c2C)cc1`, the activation is inactive: -28.6%.
On to `COc1ccc(C2C=C(c3ccc(F)cc3)Nc3nc(-c4ccc(Cl)cc4)nn32)cc1` (configuration not stated), for which the activation is inactive: 10.1%.
The result for `CC1CCN(c2nc3c(S(=O)(=O)c4ccccc4)nnn3c3ccc(Cl)cc23)CC1` reads inactive: -20.8%.
As for `COc1ccc(NC(=O)c2ccc3c(c2)N(Cc2cccc(Cl)c2)C(=O)c2ccccc2S3=O)cc1Cl` (configuration not stated), the figure is inactive: -17.9%; as for `COc1ccccc1NC(=O)NCCCN1CCN(c2ccc(F)cc2)CC1`, inactive: -10.4%; as for `O=C(c1cnn(-c2cccc(F)c2)c1-n1cccc1)N1CCN(c2ccccc2F)CC1`, inactive: -4.22%.
For the compound `Cc1c(C)n(Cc2ccccc2)c2ccc(C(=O)NCc3ccccc3F)cc12`, the activation was inactive: -14%.
The result for `COc1ccc(-n2nc3c(N4CCC(C(=O)NCc5cccc(F)c5)CC4)nnc(C)c3c2C)cc1` reads inactive: -5.04%; that for `CC(=O)c1cccc(NC(=O)CN2C(=O)c3ccccc3Sc3ncccc32)c1`, active: 71.5%.
Regarding `CCCN1CCN(CCCNC(=O)c2ccc3c(c2)sc2nc(-c4ccc(OC)cc4)cn23)CC1`, the activation was inactive: 4.85%.
The result for `COc1ccc(C(=O)Nc2cccc(-c3cn4ccsc4n3)c2)cc1OC` reads inactive: 9.6%; that for `CCS(=O)(=O)c1ccc(OC)c(C(=O)OC)c1`, inactive: 14%; that for `Cc1ccc2c(CNCC(C)c3ccccc3)c(C(=O)O)n(Cc3ccccc3C)c2c1` (configuration not stated), inactive: 7.71%.
The result for `CC1=C(C(=O)NCc2ccccc2Cl)C2(CCCCCC2)OC1=O` reads inactive: -21.6%; that for `Cn1c(SCC(=O)N2CCOCC2)ncc(C(=O)Nc2ccccc2)c1=O`, inactive: -10.7%.
The result for `CCOC(=O)C1CCN(C(=O)Cn2nc(C)n3c(cc4sccc43)c2=O)CC1` reads inactive: 18.9%.
For the compound `Cc1ccccc1Cn1c(CN2CCC(C(=O)NCc3cccnc3)CC2)cc2ccccc21`, the activation is inactive: 5.8%.
Take `COC(=O)COc1ccc(C2C(C(=O)OC)=C(C)NC3=C2C(=O)c2ccccc23)cc1OC` (configuration not stated): the activation is inactive: -81.3%.

For the origin of these results see PubChem BioAssay AID1346428 (National Center for Advancing Translational Sciences (NCATS), 2018).
